Test results from PMC4336329 (PLoS ONE, 2015).
Hit rate of the full screen: of about 310,000 compounds, about 14,000 (4.5%) showed an effect of 50% or more. Effects have a minus sign here. This is one part of the list.

Each compound was assayed against human ether-à-go-go-related gene (hERG) potassium channel (human, UniProt Q12809) (assay: primary screen, population patch clamp on CHO cells stably expressing hERG).
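Further: peak tail current of the secondary pulse compared with the same well before compound.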

Chain of human ether-à-go-go-related gene (hERG) potassium channel (Q12809 whole entry, looked up): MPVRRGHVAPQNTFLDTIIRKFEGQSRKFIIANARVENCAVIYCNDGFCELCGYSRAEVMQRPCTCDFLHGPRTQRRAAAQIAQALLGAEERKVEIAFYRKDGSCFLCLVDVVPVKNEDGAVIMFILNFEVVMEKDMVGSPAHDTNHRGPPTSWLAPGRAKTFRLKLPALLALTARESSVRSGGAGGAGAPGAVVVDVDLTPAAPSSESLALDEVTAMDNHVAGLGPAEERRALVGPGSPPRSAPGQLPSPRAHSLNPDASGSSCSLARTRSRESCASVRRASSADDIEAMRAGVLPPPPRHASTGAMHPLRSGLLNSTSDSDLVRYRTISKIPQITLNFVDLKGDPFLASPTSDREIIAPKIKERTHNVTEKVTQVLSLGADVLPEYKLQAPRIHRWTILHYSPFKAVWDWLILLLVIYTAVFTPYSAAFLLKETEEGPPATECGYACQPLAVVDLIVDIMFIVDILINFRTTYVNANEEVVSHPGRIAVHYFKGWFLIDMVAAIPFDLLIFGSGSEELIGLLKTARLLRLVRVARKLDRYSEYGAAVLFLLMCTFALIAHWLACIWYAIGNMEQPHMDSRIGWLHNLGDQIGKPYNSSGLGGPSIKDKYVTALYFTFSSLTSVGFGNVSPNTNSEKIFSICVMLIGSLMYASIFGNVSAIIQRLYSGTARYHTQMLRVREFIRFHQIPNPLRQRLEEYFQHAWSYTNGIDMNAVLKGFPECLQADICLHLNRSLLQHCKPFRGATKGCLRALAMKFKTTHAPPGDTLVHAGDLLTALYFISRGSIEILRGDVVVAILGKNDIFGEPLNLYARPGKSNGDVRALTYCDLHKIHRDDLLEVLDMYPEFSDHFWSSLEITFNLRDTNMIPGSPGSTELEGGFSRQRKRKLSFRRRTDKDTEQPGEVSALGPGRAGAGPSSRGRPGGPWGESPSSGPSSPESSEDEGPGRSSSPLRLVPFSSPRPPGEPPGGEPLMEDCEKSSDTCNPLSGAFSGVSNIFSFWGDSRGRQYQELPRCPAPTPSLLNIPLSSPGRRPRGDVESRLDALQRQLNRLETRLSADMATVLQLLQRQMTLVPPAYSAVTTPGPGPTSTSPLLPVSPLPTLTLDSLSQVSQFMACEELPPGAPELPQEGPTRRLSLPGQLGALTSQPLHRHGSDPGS

Row | SMILES | hERG current change (%, negative = inhibition) at 10uM
1 | Cc1ccc(-c2cc(C(=O)N/N=C/c3ccc([N+](=O)[O-])o3)c3ccccc3n2)o1 | -15.9%
2 | O=C1Nc2cc(Br)ccc2C1(O)c1ccccc1O (stereo not drawn) | 21.8%
3 | COc1cc(NC(=O)c2cc(C(C)C)on2)cc(OC)c1OC | 3.31%
4 | CCOCC(=O)Nc1ccc([N+](=O)[O-])cc1C | 5.75%
5 | CC(=O)NC(CC(=O)Nc1cccc(S(=O)(=O)N2CCCC2)c1)c1ccccc1 (stereo not drawn) | 4.19%
6 | O=c1cc(CN2CCc3ccccc32)nc2sccn12 | 2.78%
7 | CCCCC1C2C(=O)N(c3ccccc3)C(=O)C2ON1c1ccccc1 (stereo not drawn) | 2.38%
8 | CCC(=O)NCCc1cc2ccc(C)cc2[nH]c1=O | 1.71%
9 | Nc1cccc2c1C(=O)N(C(=O)c1ccc(Cl)c(S(=O)(=O)N3CCCCCC3)c1)C2=O | -6.44%
10 | COc1ccc(S(N)(=O)=O)cc1C(=O)NNC(=O)CN(C)S(=O)(=O)c1ccc(Cl)cc1 | -3.64%
11 | O=C(COc1ccc(S(=O)(=O)N2CCc3ccccc32)cc1Cl)NCc1ccccn1 | -25.5%
12 | O=C(c1cccc([N+](=O)[O-])c1)N1CCN(C(=O)c2ccco2)CC1 | -10.8%
13 | CS(=O)(=O)N(CC(=O)NCCSc1ccc(Cl)cc1)c1ccc2c(c1)OCO2 | -0.207%
14 | Cc1ccc(CNC(=O)CCn2cc(-c3ccc(F)cc3)nc2-c2ccncc2)cc1 | -50.1%
15 | O=C(O)CC(SCC(=O)NC1CCCc2ccccc21)C(=O)O (stereo not drawn) | 10.4%
16 | CCCc1nc2ccccc2c(=O)n1NC(=O)c1c(O)c2cccc3c2n(c1=O)CCC3 | -5.34%
17 | CC(C)c1nn(-c2cc(C(F)(F)F)ccn2)c(=O)o1 | 4.34%
18 | COc1ccc(NS(=O)(=O)c2ccc(/C=C/C(=O)O)cc2)cc1S(=O)(=O)N1CCOCC1 | 20.6%
19 | COC(=O)[C@H](Cc1ccccc1)NC(=O)C1(OC(C)=O)CC(OC(C)=O)C(OC(C)=O)C(OC(C)=O)C1 (stereo partly drawn) | 24.6%
20 | O=C(O)c1cc(N/N=C/c2c(O)ccc3ccccc23)ccc1Cl | 9.42%
21 | Cc1cc(C)nc(N2CCCC(C(=O)Nc3nnc(C)s3)C2)n1 (stereo not drawn) | -6.91%
22 | Cn1nc([N+](=O)[O-])c2c(-c3nc4ccccc4s3)c(N)n(C3CCCCC3)c2c1=O | 6.66%

Row | SMILES | hERG current change (%, negative = inhibition) at 10uM
23 | CC(C)Oc1ccc(Cc2cnc(N)nc2N)cc1 | -13%
24 | Cc1csc2nc(O)c(C(=O)NC3CCCCC3)c(=O)n12 | -8.09%
25 | COc1ccc2nc(SC(C(=O)c3ccccc3)c3ccccc3)nc(C)c2c1 (stereo not drawn) | 24.4%
26 | Cc1ccc(NC(=O)Cc2noc3ccccc23)nc1 | -8.24%
27 | CC(C)N=C(NC#N)SCc1ccccc1 | -33.2%
28 | COc1cc(Cn2nnc3ccccc32)ccc1O | 4.91%
29 | CCCN1CCC(=O)N([C@H](COc2ccccc2)c2ccccc2)CC1 | -78.2%
30 | Cn1cnc2c(N3CCCCC3)nccc21 | 4.92%
31 | Cc1ccccc1OCCSCc1nc2ccccc2[nH]1 | -19.5%
32 | Cc1c(C(=O)NCCN2C(=O)S/C(=C\c3cccs3)C2=O)cccc1[N+](=O)[O-] | -14.1%
33 | COc1ccc(OCCCCN2CCC(C)CC2)cc1.O=C(O)C(=O)O | -29%
34 | O=C(Cc1ccccc1)Nc1ccccc1C(=O)N1CCN(c2ccccc2)CC1 | 14.8%
35 | COCCNC(=O)c1onc(CSc2ccc(C)c(C)c2)c1C(=O)O | -15.2%
36 | CC(=O)N1CCc2c(sc(NC(=O)C3CCCCC3)c2C(N)=O)C1 | -10.4%
37 | CC(C)c1ccccc1NC(=S)NCc1ccccc1F | 19.9%
38 | Cn1c(=O)c(C(=O)NCCc2ccccc2)c(O)c2ccccc21 | 20.1%
39 | Nc1nc2c([N+](=O)[O-])cccc2s1 | 31.8%
40 | CCCOc1ccc(N2CC(C(=O)Nc3ccc(N4CCOCC4)cc3)CC2=O)cc1 (stereo not drawn) | 36%
41 | Cc1cccc(C(=O)O)c1NC(=O)Cc1cccc2ccccc12 | 14.3%
42 | O=c1[nH]cc(S(=O)(=O)N2CCN(c3cccc(C(F)(F)F)c3)CC2)c(=O)[nH]1 | 17.6%
43 | CC(=C\c1ccccc1)/C=C1/SC(=O)N(CCCC(=O)Nc2ccc(C(=O)O)cc2)C1=O | 20.4%
44 | COc1ccc(CN(C)CC(=O)Nc2ccccc2-c2ccccc2)c(OC)c1 | 8.4%

Row | SMILES | hERG current change (%, negative = inhibition) at 10uM
45 | COc1ccc2nc(NC(=O)/C=C/c3ccc4c(c3)OCO4)sc2c1 | 4.89%
46 | C=CCc1cccc(C=Nc2cccn3cc(-c4ccccc4)nc23)c1O | 17.6%
47 | CNC(=S)NNC(=O)c1cccn(Cc2ccc(Cl)cc2Cl)c1=O | -19.5%
48 | CN(CC(=O)Nc1ccc(F)cc1)C(=O)CSc1ccc2c(c1)OCCO2 | -14.6%
49 | O=C1CC(=O)N(c2cccc(Br)c2)C(=O)N1 | 2.88%
50 | CCN(CC)CCCNc1nc2cc(OC)c(OC)cc2c2nc(-c3ccccc3)nn12 | -7.77%
51 | Cc1ccc(S(=O)(=O)N2CCOCC2)cc1NC(=O)C1=NN(c2ccccc2)C(=O)CC1 | -18%
52 | CCOc1cc(/C=N/Nc2nc(N3CCCC3)nc(N3CCCC3)n2)ccc1O | -61.4%
53 | O=c1c2ccccc2[nH]c(=S)n1CCN1CCN(Cc2ccccc2)CC1 | -19.8%
54 | O=S(=O)(/C=C/c1ccccc1)NCc1ccccc1Cl | -8.17%
55 | Cc1c(CCOC(=O)c2cc([N+](=O)[O-])ccc2Cl)sc[n+]1CCCCS(=O)(=O)[O-] | 25.3%
56 | CCC(=O)Nc1ccc(Cl)c(NC(=S)NC(=O)COc2ccccc2)c1 | 10.2%
57 | NC(=O)c1cc2ccncc2c2ccccc12 | 14.7%
58 | CC(C)Nc1nc(Cl)nc(N(C#N)CN2C(=O)c3ccccc3C2=O)n1 | -7.58%
59 | COc1ccccc1NS(=O)(=O)c1ccc(C(=O)NCC2(N(C)C)CCCCC2)cc1 | 3.78%
60 | CCN1CCC2(CC1)N=C(c1ccc(F)cc1)C(=S)N2 | -42.8%
61 | CCN(CC(=O)Nc1c(F)cccc1F)C(=O)c1cccc(S(=O)(=O)N(C)c2ccccc2)c1 | -15.5%
62 | COC(=O)CC1=NN(c2ccc(OC)cc2)C(=O)C1 | 12.5%
63 | CCOc1ccc(N2CC(C(=O)Oc3ccccc3)CC2=O)cc1 (stereo not drawn) | -10.9%
64 | COC(=O)c1sccc1NC(=O)Nc1cccc([N+](=O)[O-])c1 | 0.108%
65 | O=C(Nc1nnc(-c2ccc(Cl)cc2)o1)c1ccccc1Br | -4.79%
66 | CCO[C@@H]1OC(C(=O)N2CCN(C)CC2)=C[C@H](C(C)(C)C)[C@H]1CCCO | 4.41%

Row | SMILES | hERG current change (%, negative = inhibition) at 10uM
67 | Cc1nnc(SC(C)C(=O)NCC2CCCO2)s1 (stereo not drawn) | 0.203%
68 | Cc1onc(-c2ccccc2)c1C(=O)N1CCN(Cc2ccccc2)CC1 | 9.09%
69 | Cc1cccc(NC(=O)/C(C#N)=C/c2ccccc2Cl)n1 | 28.4%
70 | CCSc1cnc(-c2ccccc2)n1CC.Cl | -1.31%
71 | Cc1cc(C(C)(C)C)cc(S(=O)(=O)Nc2cccc(C(=O)O)c2)c1C | -4.31%
72 | COc1ccc(NC(=S)NNC(=O)c2nnn(-c3ccccc3)c2C)cc1 | 6.6%
73 | COC(=O)c1ccc(OC)c(NS(=O)(=O)c2ccc(-n3cnnn3)cc2)c1 | -20.9%
74 | COc1ccc(CN2CCC(C(=O)N3CCCC(C)C3)CC2)cc1OC.O=C(O)C(=O)O (stereo not drawn) | -19.2%
75 | CN1C(=S)SC(/[N+]([O-])=C\c2ccccc2F)C1(C)C (stereo not drawn) | 2.37%
76 | CCOC(=O)N1CCN(C(=O)c2cc3c(s2)-c2ccc(Cl)cc2S(=O)(=O)C3)CC1 | -66.5%
77 | CC(NS(=O)(=O)c1ccc2c(c1)c(=O)n(C)c(=O)n2C)C(=O)NC1CCCCC1 (stereo not drawn) | 7.02%
78 | S=c1[nH]nc(-c2ccco2)n1-c1cccc2ccccc12 | 11.7%
79 | COC(=O)c1nn(-c2ccc(OC)cc2)c(=O)c2c(N)sc(C)c12 | -5.54%
80 | CCOC(=O)/C(=C\c1cn(C)c2ccccc12)[N+](=O)[O-] | 12.9%
81 | O=S(=O)(NC1CCCCC1N1CCN(c2ccc(F)cc2)CC1)c1ccc(Cl)cc1 (stereo not drawn) | -22.6%
82 | C/C(=N\Nc1ccc(Cl)c(C(=O)O)c1)c1cccs1 | 0.835%
83 | COc1ccc(NC(=O)CCNS(=O)(=O)c2cccc3nonc23)c(OC)c1 | -3.51%
84 | CN1CCN(c2ccc(NC(=O)COc3ccc(Cl)cc3Cl)cc2)CC1 | -8.64%
85 | COc1ccc(/C=N/NC(=O)c2cccc([N+](=O)[O-])c2)cc1OC(=O)c1ccccc1 | 5.66%
86 | O=C(Cn1cnc2c(nnn2Cc2ccc(F)cc2)c1=O)NCc1ccc(F)cc1 | 20.6%
87 | COc1ccccc1/C=C/C(=O)NCC(=O)N/N=C(/C)c1ccc(Cl)cc1 | 0.591%
